# In the supplement of paper PMC8728848:
# Some of the results follow.
# Tests used:
# Assay in all cases: glycan array binding signal (z-score within array); higher = stronger binding
# Settings in all cases: glycan notation: IUPAC condensed, linker removed
# [1] = biological target: Fuc(a1-2)Gal
# How it was run: (§1)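 Glycan array data came from 3228 arrays in the Consortium for Functional Glycomics database, and only arrays with an available protein sequence were kept. Glycan names were put into IUPAC-condensed notation, and columns mapping to the same glycan were averaged. The binding signal is a within-array Z-score, averaged across arrays of one protein sequence run at different concentrations or buffers and across linkers. A negative Z-score can be read as non-binding.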
# [2] = biological target: Fuc(a1-2)Gal(b1-3)GalNAc
# How it was run: as §1
# [3] = biological target: Fuc(a1-2)Gal(b1-3)GalNAc(b1-3)Gal
# How it was run: as §1
# [4] = biological target: Fuc(a1-2)Gal(b1-3)GalNAc(b1-3)Gal(a1-4)Gal(b1-4)Glc
# How it was run: as §1
# [5] = biological target: Fuc(a1-2)Gal(b1-3)GalNAc(b1-4)[Neu5Ac(a2-3)]Gal(b1-4)Glc
# How it was run: as §1
# [6] = biological target: Fuc(a1-2)Gal(b1-3)GlcNAc
# How it was run: as §1
# [7] = biological target: Fuc(a1-2)Gal(b1-3)GlcNAc(b1-2)Man(a1-3)[Fuc(a1-2)Gal(b1-3)GlcNAc(b1-2)Man(a1-6)]Man(b1-4)GlcNAc(b1-4)GlcNAc
# How it was run: as §1
# [8] = biological target: Fuc(a1-2)Gal(b1-3)GlcNAc(b1-3)Gal(b1-4)Glc
# How it was run: as §1
# [9] = biological target: Fuc(a1-2)Gal(b1-3)GlcNAc(b1-3)[Gal(b1-4)[Fuc(a1-3)]GlcNAc(b1-6)]Gal(b1-4)Glc
# How it was run: as §1
# [10] = biological target: Fuc(a1-2)Gal(b1-3)[Fuc(a1-4)]GlcNAc
# How it was run: as §1
# [11] = biological target: Fuc(a1-2)Gal(b1-3)[Fuc(a1-4)]GlcNAc(b1-2)Man(a1-3)[Fuc(a1-2)Gal(b1-3)[Fuc(a1-4)]GlcNAc(b1-2)Man(a1-6)]Man(b1-4)GlcNAc(b1-4)GlcNAc
# How it was run: as §1
# [12] = biological target: Fuc(a1-2)Gal(b1-4)Glc
# How it was run: as §1
# [13] = biological target: Fuc(a1-2)Gal(b1-4)Glc6S
# How it was run: as §1
# [14] = biological target: Fuc(a1-2)Gal(b1-4)GlcNAc
# How it was run: as §1
# [15] = biological target: Fuc(a1-2)Gal(b1-4)GlcNAc(b1-2)Man(a1-3)[Fuc(a1-2)Gal(b1-4)GlcNAc(b1-2)Man(a1-6)]Man(b1-4)GlcNAc(b1-4)GlcNAc
# How it was run: as §1
# [16] = biological target: Fuc(a1-2)Gal(b1-4)GlcNAc(b1-3)Gal(b1-4)GlcNAc
# How it was run: as §1
# [17] = biological target: Fuc(a1-2)Gal(b1-4)GlcNAc(b1-3)Gal(b1-4)GlcNAc(b1-3)Gal(b1-4)GlcNAc
# How it was run: as §1
# [18] = biological target: Fuc(a1-2)Gal(b1-4)GlcNAc6S
# How it was run: as §1
# [19] = biological target: Fuc(a1-2)Gal(b1-4)[Fuc(a1-3)]GlcNAc
# How it was run: as §1
# [20] = biological target: Fuc(a1-2)Gal(b1-4)[Fuc(a1-3)]GlcNAc(b1-2)Man(a1-3)[Fuc(a1-2)Gal(b1-4)[Fuc(a1-3)]GlcNAc(b1-2)Man(a1-6)]Man(b1-4)GlcNAc(b1-4)GlcNAc
# How it was run: as §1
# [21] = biological target: Fuc(a1-2)Gal(b1-4)[Fuc(a1-3)]GlcNAc(b1-3)Gal(b1-4)[Fuc(a1-3)]GlcNAc
# How it was run: as §1
# [22] = biological target: Fuc(a1-2)Gal(b1-4)[Fuc(a1-3)]GlcNAc(b1-3)Gal(b1-4)[Fuc(a1-3)]GlcNAc(b1-3)Gal(b1-4)[Fuc(a1-3)]GlcNAc
# How it was run: as §1
# [23] = biological target: Fuc(a1-2)Gal6S(b1-4)Glc
# How it was run: as §1
# [24] = biological target: Fuc(a1-2)Gal6S(b1-4)Glc6S
# How it was run: as §1
# [25] = biological target: Fuc(a1-2)Gal6S(b1-4)GlcNAc
# How it was run: as §1
# [26] = biological target: Fuc(a1-2)[Gal(a1-3)]Gal
# How it was run: as §1
# [27] = biological target: Fuc(a1-2)[Gal(a1-3)]Gal(b1-3)GlcNAc
# How it was run: as §1
# [28] = biological target: Fuc(a1-2)[Gal(a1-3)]Gal(b1-3)GlcNAc(b1-2)Man(a1-3)[Fuc(a1-2)[Gal(a1-3)]Gal(b1-3)GlcNAc(b1-2)Man(a1-6)]Man(b1-4)GlcNAc(b1-4)GlcNAc
# How it was run: as §1
# [29] = biological target: Fuc(a1-2)[Gal(a1-3)]Gal(b1-4)Glc
# How it was run: as §1
# [30] = biological target: Fuc(a1-2)[Gal(a1-3)]Gal(b1-4)GlcNAc
# How it was run: as §1
# [31] = biological target: Fuc(a1-2)[Gal(a1-3)]Gal(b1-4)GlcNAc(b1-2)Man(a1-3)[Fuc(a1-2)[Gal(a1-3)]Gal(b1-4)GlcNAc(b1-2)Man(a1-6)]Man(b1-4)GlcNAc(b1-4)GlcNAc
# How it was run: as §1
# [32] = biological target: Fuc(a1-2)[Gal(a1-3)]Gal(b1-4)[Fuc(a1-3)]GlcNAc
# How it was run: as §1
# [33] = biological target: Fuc(a1-2)[Gal(a1-4)]Gal(b1-4)GlcNAc
# How it was run: as §1
# [34] = biological target: Fuc(a1-2)[GalNAc(a1-3)]Gal
# How it was run: as §1
# [35] = biological target: Fuc(a1-2)[GalNAc(a1-3)]Gal(b1-3)GlcNAc
# How it was run: as §1
# [36] = biological target: Fuc(a1-2)[GalNAc(a1-3)]Gal(b1-3)GlcNAc(b1-2)Man(a1-3)[Fuc(a1-2)[GalNAc(a1-3)]Gal(b1-3)GlcNAc(b1-2)Man(a1-6)]Man(b1-4)GlcNAc(b1-4)GlcNAc
# How it was run: as §1
# [37] = biological target: Fuc(a1-2)[GalNAc(a1-3)]Gal(b1-4)Glc
# How it was run: as §1
binder,measurement,setting,value
"GIINTLQKYYCRVRGGRCAVLSCLPKEEQIGKCSTRGRKCCRRKK [Beta-Defensin 3 (Homo sapiens), P81534]",glycan array binding signal (z-score),[1],0.026
same,glycan array binding signal (z-score),[2],-0.217
same,glycan array binding signal (z-score),[3],-0.214
same,glycan array binding signal (z-score),[4],-0.574
same,glycan array binding signal (z-score),[5],-0.543
same,glycan array binding signal (z-score),[6],-0.288
same,glycan array binding signal (z-score),[7],-0.721
same,glycan array binding signal (z-score),[8],-0.454
same,glycan array binding signal (z-score),[9],-0.502
same,glycan array binding signal (z-score),[10],-0.254
same,glycan array binding signal (z-score),[11],0.336
same,glycan array binding signal (z-score),[12],-0.284
same,glycan array binding signal (z-score),[13],0.55
same,glycan array binding signal (z-score),[14],-0.513
same,glycan array binding signal (z-score),[15],-0.692
same,glycan array binding signal (z-score),[16],-0.522
same,glycan array binding signal (z-score),[17],-0.323
same,glycan array binding signal (z-score),[18],-0.267
same,glycan array binding signal (z-score),[19],-0.259
same,glycan array binding signal (z-score),[20],-0.427
same,glycan array binding signal (z-score),[21],-0.443
same,glycan array binding signal (z-score),[22],-0.483
same,glycan array binding signal (z-score),[23],0.806
same,glycan array binding signal (z-score),[24],5.67
same,glycan array binding signal (z-score),[25],0.386
same,glycan array binding signal (z-score),[26],-0.102
same,glycan array binding signal (z-score),[27],-0.401
same,glycan array binding signal (z-score),[28],-0.663
same,glycan array binding signal (z-score),[29],-0.411
same,glycan array binding signal (z-score),[30],-0.436
same,glycan array binding signal (z-score),[31],-0.582
same,glycan array binding signal (z-score),[32],0.22
same,glycan array binding signal (z-score),[33],-0.449
same,glycan array binding signal (z-score),[34],-0.321
same,glycan array binding signal (z-score),[35],-0.489
same,glycan array binding signal (z-score),[36],-0.167
same,glycan array binding signal (z-score),[37],-0.57
